T1: RBFOX1 RRM (Homo sapiens, UniProt Q9NWB1 109-208)
T1 sequence: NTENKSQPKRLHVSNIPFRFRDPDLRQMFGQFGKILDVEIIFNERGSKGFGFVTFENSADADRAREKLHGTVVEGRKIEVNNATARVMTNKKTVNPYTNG

B1: GGGGAAC (DNA:RNA)
RNA: GGGAGACCGGAAUUCAGAUUGUCCGGGGAACUUAAAUCCCGUCGUAGCCACCA
DNA 1: CAATCTGAATTCCGGTCTCCC
DNA 2: TGGTGGCTACGACGGGATT
B2: ACUAUGC (DNA:RNA)
RNA: B1 RNA with G25A, G26C, G27U, G28A, A29U, A30G
DNA 1: CAATCTGAATTCCGGTCTCCC
DNA 2: TGGTGGCTACGACGGGATT
B3: UACACGU (DNA:RNA)
RNA: GGGAGACCGGAAUUCAGAUUGUCCUACACGUUUAAAUCCCGUCGUAGCCACCA
DNA 1: CAATCTGAATTCCGGTCTCCC
DNA 2: TGGTGGCTACGACGGGATT
B4: CAUAAGC (DNA:RNA)
RNA: B3 RNA with U25C, C27U, C29A, U31C
DNA 1: CAATCTGAATTCCGGTCTCCC
DNA 2: TGGTGGCTACGACGGGATT
B5: CCGGGCA (DNA:RNA)
RNA: B1 RNA with G25C, G26C, A29G, A30C, C31A
DNA 1: CAATCTGAATTCCGGTCTCCC
DNA 2: TGGTGGCTACGACGGGATT
B6: CUUCGCC (DNA:RNA)
RNA: B1 RNA with G25C, G26U, G27U, G28C, A29G, A30C
DNA 1: CAATCTGAATTCCGGTCTCCC
DNA 2: TGGTGGCTACGACGGGATT
B7: GUCUCGG (DNA:RNA)
RNA: B3 RNA with U25G, A26U, A28U, U31G
DNA 1: CAATCTGAATTCCGGTCTCCC
DNA 2: TGGTGGCTACGACGGGATT
B8: CCAUAGG (DNA:RNA)
RNA: B1 RNA with G25C, G26C, G27A, G28U, A30G, C31G
DNA 1: CAATCTGAATTCCGGTCTCCC
DNA 2: TGGTGGCTACGACGGGATT
B9: UUCUUUC (DNA:RNA)
RNA: B3 RNA with A26U, A28U, C29U, G30U, U31C
DNA 1: CAATCTGAATTCCGGTCTCCC
DNA 2: TGGTGGCTACGACGGGATT
B10: GUUGGCC (DNA:RNA)
RNA: B1 RNA with G26U, G27U, A29G, A30C
DNA 1: CAATCTGAATTCCGGTCTCCC
DNA 2: TGGTGGCTACGACGGGATT
B11: CAUCGUA (DNA:RNA)
RNA: B3 RNA with U25C, C27U, A28C, C29G, G30U, U31A
DNA 1: CAATCTGAATTCCGGTCTCCC
DNA 2: TGGTGGCTACGACGGGATT
B12: GGCCUGU (DNA:RNA)
RNA: B3 RNA with U25G, A26G, A28C, C29U
DNA 1: CAATCTGAATTCCGGTCTCCC
DNA 2: TGGTGGCTACGACGGGATT
B13: UACGAGU (DNA:RNA)
RNA: B3 RNA with A28G, C29A
DNA 1: CAATCTGAATTCCGGTCTCCC
DNA 2: TGGTGGCTACGACGGGATT
B14: CUGCUGA (DNA:RNA)
RNA: B1 RNA with G25C, G26U, G28C, A29U, A30G, C31A
DNA 1: CAATCTGAATTCCGGTCTCCC
DNA 2: TGGTGGCTACGACGGGATT
B15: GUUGUCC (DNA:RNA)
RNA: B1 RNA with G26U, G27U, A29U, A30C
DNA 1: CAATCTGAATTCCGGTCTCCC
DNA 2: TGGTGGCTACGACGGGATT
B16: CGUUUAG (DNA:RNA)
RNA: B1 RNA with G25C, G27U, G28U, A29U, C31G
DNA 1: CAATCTGAATTCCGGTCTCCC
DNA 2: TGGTGGCTACGACGGGATT
B17: CUAGGCG (DNA:RNA)
RNA: B1 RNA with G25C, G26U, G27A, A29G, A30C, C31G
DNA 1: CAATCTGAATTCCGGTCTCCC
DNA 2: TGGTGGCTACGACGGGATT
B18: CGCCGUA (DNA:RNA)
RNA: B1 RNA with G25C, G27C, G28C, A29G, A30U, C31A
DNA 1: CAATCTGAATTCCGGTCTCCC
DNA 2: TGGTGGCTACGACGGGATT
B19: CAAGCCU (DNA:RNA)
RNA: B3 RNA with U25C, C27A, A28G, G30C
DNA 1: CAATCTGAATTCCGGTCTCCC
DNA 2: TGGTGGCTACGACGGGATT
B20: AUAGCUA (DNA:RNA)
RNA: B1 RNA with G25A, G26U, G27A, A29C, A30U, C31A
DNA 1: CAATCTGAATTCCGGTCTCCC
DNA 2: TGGTGGCTACGACGGGATT
B21: GCUUGUU (DNA:RNA)
RNA: B1 RNA with G26C, G27U, G28U, A29G, A30U, C31U
DNA 1: CAATCTGAATTCCGGTCTCCC
DNA 2: TGGTGGCTACGACGGGATT
B22: CCAUGCU (DNA:RNA)
RNA: B3 RNA with U25C, A26C, C27A, A28U, C29G, G30C
DNA 1: CAATCTGAATTCCGGTCTCCC
DNA 2: TGGTGGCTACGACGGGATT
B23: UGGAUGC (DNA:RNA)
RNA: B1 RNA with G25U, G28A, A29U, A30G
DNA 1: CAATCTGAATTCCGGTCTCCC
DNA 2: TGGTGGCTACGACGGGATT
B24: CAUACAG (DNA:RNA)
RNA: B3 RNA with U25C, C27U, G30A, U31G
DNA 1: CAATCTGAATTCCGGTCTCCC
DNA 2: TGGTGGCTACGACGGGATT
B25: ACAAGUC (DNA:RNA)
RNA: B1 RNA with G25A, G26C, G27A, G28A, A29G, A30U
DNA 1: CAATCTGAATTCCGGTCTCCC
DNA 2: TGGTGGCTACGACGGGATT
B26: UGUCGAC (DNA:RNA)
RNA: B1 RNA with G25U, G27U, G28C, A29G
DNA 1: CAATCTGAATTCCGGTCTCCC
DNA 2: TGGTGGCTACGACGGGATT
B27: GUAGGUC (DNA:RNA)
RNA: B1 RNA with G26U, G27A, A29G, A30U
DNA 1: CAATCTGAATTCCGGTCTCCC
DNA 2: TGGTGGCTACGACGGGATT
B28: UAAGUUU (DNA:RNA)
RNA: B3 RNA with C27A, A28G, C29U, G30U
DNA 1: CAATCTGAATTCCGGTCTCCC
DNA 2: TGGTGGCTACGACGGGATT
B29: GCAGUAA (DNA:RNA)
RNA: B1 RNA with G26C, G27A, A29U, C31A
DNA 1: CAATCTGAATTCCGGTCTCCC
DNA 2: TGGTGGCTACGACGGGATT
B30: AACGGCU (DNA:RNA)
RNA: B3 RNA with U25A, A28G, C29G, G30C
DNA 1: CAATCTGAATTCCGGTCTCCC
DNA 2: TGGTGGCTACGACGGGATT
B31: UGGGCCG (DNA:RNA)
RNA: B1 RNA with G25U, A29C, A30C, C31G
DNA 1: CAATCTGAATTCCGGTCTCCC
DNA 2: TGGTGGCTACGACGGGATT

Positions count from the first letter of the chain named. The list shows a part of the results.

The assay concerns the target T1, RBFOX1 RRM. The assay is described as follows: EMSA; HiTS-Eq, 1 nM pool, 10 min; buffer printed only for the single-RNA assays: 10 mM Tris pH 7.5, 150 mM NaCl, 3.4 mM EDTA, 0.001% NP-40, 30 C. As to conditions: tags: His6 N-terminal (pET28a); label: 5' 32P. The method in brief: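 These values rest on relative association constants, computed from read-count changes of each RNA species versus the control reaction and normalised to the cognate motif. Reads came from free RNA recovered by 8% native PAGE after purified RbFox RRM (wild type or mutant) at increasing concentrations was equilibrated for 10 min in 50 µL with 1 nM of a 5′-radiolabelled pool with 7 randomized nucleotides and DNA-annealed flanks.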
As to B1, the binding signal is 0.0298 KA relative to UGCAUGU.

As for B2, the binding signal was 0.00897 KA relative to UGCAUGU.

For B3, the binding signal is 0.00625 KA relative to UGCAUGU.

As to B4, the binding signal is 0.00212 KA relative to UGCAUGU.

Turning to B5, the binding signal is 0.0121 KA relative to UGCAUGU.

On to B6, for which the binding signal was 0.00932 KA relative to UGCAUGU.

As for B7, the binding signal was 0.00815 KA relative to UGCAUGU.

Consider B8, for which the binding signal was 0.00778 KA relative to UGCAUGU.

Turning to B9, the binding signal was 0.016 KA relative to UGCAUGU.

Take B10: the binding signal is 0.0228 KA relative to UGCAUGU.

On to B11, for which the binding signal was 0.00357 KA relative to UGCAUGU.

B12: the binding signal is 0.0238 KA relative to UGCAUGU.

Turning to B13, the binding signal is 0.0118 KA relative to UGCAUGU.

Turning to B14, the binding signal is 0.0215 KA relative to UGCAUGU.

Turning to B15, the binding signal was 0.0202 KA relative to UGCAUGU.

Regarding B16, the binding signal is 0.0111 KA relative to UGCAUGU.

Turning to B17, the binding signal is 0.0145 KA relative to UGCAUGU.

For the molecule B18, the binding signal was 0.00436 KA relative to UGCAUGU.

With B19, the binding signal is 0.00533 KA relative to UGCAUGU.

With B20, the binding signal was 0.00168 KA relative to UGCAUGU.

For the molecule B21, the binding signal was 0.0259 KA relative to UGCAUGU.

In the case of B22, the binding signal was 0.00802 KA relative to UGCAUGU.

B23: the binding signal was 0.0582 KA relative to UGCAUGU.

Consider B24, for which the binding signal was 0.00124 KA relative to UGCAUGU.

B25: the binding signal was 0.00151 KA relative to UGCAUGU.

For B26, the binding signal is 0.016 KA relative to UGCAUGU.

In the case of B27, the binding signal was 0.0101 KA relative to UGCAUGU.

For B28, the binding signal was 0.0119 KA relative to UGCAUGU.

For B29, the binding signal is 0.00602 KA relative to UGCAUGU.

B30: the binding signal was 0.00649 KA relative to UGCAUGU.

For B31, the binding signal was 0.0335 KA relative to UGCAUGU.

Values taken from paper PMC9911399, “Two distinct binding modes provide the RNA-binding protein RbFox with extraordinary sequence specificity”.
